# According to article PMC4336329 (PLoS ONE, 2015):
# Screen size: about 310,000 compounds; about 2,200 (0.71%) showed an effect of 50% or more. The effect is printed as a negative number. This is one part of the list.
# Target: human ether-à-go-go-related gene (hERG) potassium channel (human, UniProt Q12809)
# Experiment: primary screen, population patch clamp on CHO cells stably expressing hERG
# human ether-à-go-go-related gene (hERG) potassium channel, sequence (Q12809 whole entry, looked up): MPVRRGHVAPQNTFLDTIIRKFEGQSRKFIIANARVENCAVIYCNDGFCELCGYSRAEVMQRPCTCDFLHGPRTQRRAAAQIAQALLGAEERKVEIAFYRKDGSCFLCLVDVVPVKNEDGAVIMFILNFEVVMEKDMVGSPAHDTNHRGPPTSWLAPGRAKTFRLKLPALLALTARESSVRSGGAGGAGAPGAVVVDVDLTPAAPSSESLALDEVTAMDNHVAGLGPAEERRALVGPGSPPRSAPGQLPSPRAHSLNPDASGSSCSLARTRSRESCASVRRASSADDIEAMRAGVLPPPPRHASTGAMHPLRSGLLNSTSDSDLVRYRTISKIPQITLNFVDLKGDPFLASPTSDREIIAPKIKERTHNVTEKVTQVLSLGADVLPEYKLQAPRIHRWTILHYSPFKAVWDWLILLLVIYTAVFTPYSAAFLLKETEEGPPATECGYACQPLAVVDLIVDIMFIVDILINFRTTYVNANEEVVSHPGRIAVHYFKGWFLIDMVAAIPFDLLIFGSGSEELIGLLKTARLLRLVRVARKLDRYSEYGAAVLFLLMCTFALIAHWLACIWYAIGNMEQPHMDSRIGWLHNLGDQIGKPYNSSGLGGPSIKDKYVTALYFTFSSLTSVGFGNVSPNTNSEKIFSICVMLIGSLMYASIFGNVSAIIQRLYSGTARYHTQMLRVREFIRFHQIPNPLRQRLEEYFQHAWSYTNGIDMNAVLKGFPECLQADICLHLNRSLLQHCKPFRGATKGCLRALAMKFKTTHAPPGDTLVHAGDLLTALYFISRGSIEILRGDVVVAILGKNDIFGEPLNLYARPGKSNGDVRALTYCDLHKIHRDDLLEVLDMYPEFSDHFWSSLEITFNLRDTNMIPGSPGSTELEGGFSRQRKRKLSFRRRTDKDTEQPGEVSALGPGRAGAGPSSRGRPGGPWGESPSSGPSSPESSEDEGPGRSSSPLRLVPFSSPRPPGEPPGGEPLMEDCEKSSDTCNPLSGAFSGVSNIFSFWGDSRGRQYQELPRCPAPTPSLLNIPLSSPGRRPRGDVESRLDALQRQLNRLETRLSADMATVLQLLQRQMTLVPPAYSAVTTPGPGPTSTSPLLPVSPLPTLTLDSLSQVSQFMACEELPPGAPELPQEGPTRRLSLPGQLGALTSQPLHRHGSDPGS
row,SMILES,"hERG current change (%, negative = inhibition) at 1uM [%]"
1,COc1ccc(CC(=O)Nc2cccc(S(=O)(=O)N3CCCCCC3)c2)cc1OC,6.49
2,CC(=O)Nc1sc2c(c1C(=O)N1CCOCC1)CCCCC2,14.4
3,CC1=NN(C(=O)c2ccccc2Cl)C(O)(c2ccccc2)C1 (stereo not shown),14
4,Cc1noc(/C=C/c2cccs2)c1S(=O)(=O)N1CCC(C(=O)NCCCN2CCCC(C)C2)CC1 (stereo not shown),7.57
5,Cc1ccc(C(=O)C2CCN(C(=S)NCCCOC(C)C)CC2)cc1,10.3
6,CCOC(=O)/C(=N\O)C1=NC(C)(C)Cc2ccccc21,11.2
7,COc1ccccc1C(=O)NC(=O)CSc1nncn1C(C)C,3.88
8,COc1ccccc1-n1c(=O)c(C#N)c(-c2ccc([N+](=O)[O-])cc2)c2cc(C(=O)c3cc(F)ccc3O)cnc21,10.6
9,COC(=O)c1cc(COC(=O)c2ccc3ccccc3n2)oc1C,13.4
10,CCOC(=O)c1c(NC(=O)COC(=O)c2nccnc2N)sc(C(=O)N(C)C)c1C,11.8
11,O=C(OCc1ccc(Cl)cc1Cl)c1ccncc1,3.9
12,C=CCSc1nc(N2CCOCC2)c2c(c1C#N)CC(C)(C)N(C)C2,9.38
13,CCOc1cc(/C=N/n2cnnc2)ccc1OS(=O)(=O)c1ccc(C)cc1,-10.7
14,O=C(CSc1ccc(F)cc1)Nc1nnc(-c2ccco2)o1,14.3
15,Cc1cc(C)c(CN2CCC(N3CCC(C(=O)NCC4CCCO4)CC3)CC2)cc1C (stereo not shown),5.86
16,CCCN(C(=O)c1cccc(S(=O)(=O)N2CCN(C)CC2)c1)c1c(N)n(Cc2ccccc2)c(=O)[nH]c1=O,7.09
17,O=C(C1CCN(S(=O)(=O)c2cnc[nH]2)CC1)N1CCn2c1nc1ccccc12,0.843
18,COc1ccc(-c2nsc(C(=O)N(c3ccc(F)cc3)C(C(=O)NC3CCCC3)c3ccc(OC)cc3)c2N)cc1 (stereo not shown),8.11
19,Cc1ccc(NC(=O)c2c(-c3ccccc3)noc2C)nc1,13.6
20,COc1cc(C2NC(=S)NC(C)=C2C(=O)OC(C)C)ccc1OC(C)C (stereo not shown),5.19
21,Cc1nn(C)c(C)c1/C=N/O,14.8
22,COC(=O)c1cccc(-n2sc3ccccc3c2=O)c1,18.1

row,SMILES,"hERG current change (%, negative = inhibition) at 1uM [%]"
1,Cc1ccc(S(=O)(=O)N2CCC(=O)N(C(COCc3cccc(Cl)c3)C(C)C)CC2)cc1 (stereo not shown),-6.86
2,O=C(CSC1=Nc2ccccc2C2=NC(CC(=O)NC3CCCCC3)C(=O)N12)NCc1ccco1 (stereo not shown),11.6
3,COc1ccc(S(=O)(=O)NCCc2ccncc2)cc1,16.9
4,CN(C(=O)COC(=O)c1ccc(F)c(S(=O)(=O)N2CCOCC2)c1)C1CCS(=O)(=O)C1 (stereo not shown),3.56
5,O=C(CN1C(=O)COCC1=O)N1CCOCC1,8.13
6,COc1cc(CN2CCN(c3ncccn3)CC2)cc(OC)c1,8.24
7,COc1ccc(C2=C(C=O)Cc3ccccc3O2)cc1,-2.74
8,CC(=O)n1cc(C2C(=O)CCCC2=O)c2ccccc21,-1.08
9,Cc1nc(N=C(N)N)nc2c(C)cccc12,11.4
10,O=C(O)c1ccc(-n2ncc3c2/C(=C/c2cccc([N+](=O)[O-])c2)CC3)cc1,16.9
11,C#CCCc1cocc1/C=[N+](\[O-])c1ccc(C(=O)OCC)cc1,6.61
12,NC1CCN(c2c(F)cc3c(=O)c(C(=O)O)cn(C4CC4)c3c2Cl)C1 (stereo not shown),7.46
13,COc1cc(C(=O)NCC(=O)NNC(=O)C2COc3ccccc3O2)cc(OC)c1OC (stereo not shown),13
14,O=C(Nc1cccc(-n2cccn2)c1)C1CCCN(Cc2cccc(F)c2F)C1 (stereo not shown),8.5
15,O=C(CCc1c[nH]c2ccccc12)NN1C(=O)NC2(CCCCC2)C1=O,6.06
16,CC(=O)N1CCN(c2ccc(NC(=O)c3ccco3)cc2)CC1,-3.25
17,COc1cc(NC(=S)NNC(=O)CC(C)C)c(OC)cc1Cl,7.05
18,COC(=O)CC1=NN(c2ccc(OC)cc2)C(=O)/C1=C\c1ccc(Cl)cc1,10.4
19,Cc1[nH]c2ccccc2c1N=Nc1cccc(C(=O)O)c1,11.9
20,CC1CCCCN1C(=O)CSc1nc(-c2ccccc2)cn1N (stereo not shown),-0.277
21,CCNS(=O)(=O)c1ccc(C(=O)OCc2cc(=O)oc3cc(OC)ccc23)cc1,8.38
22,COc1ccc(C)cc1NC(=O)c1ccccc1N(C)S(=O)(=O)c1ccccc1,9.88

row,SMILES,"hERG current change (%, negative = inhibition) at 1uM [%]"
1,Cc1cccn2c(=O)c(C=O)c(N3CCSCC3)nc12,8.95
2,COc1cc(OC)cc(-c2nnc(SCC(=O)N3CCOCC3)o2)c1,14
3,CCS(=O)(=O)N1CCCC(C(=O)NC2CCC(C)CC2)C1 (stereo not shown),0.0198
4,C/C(=N\Nc1ccc(C(=O)O)cc1)c1ccc2c(c1)Nc1ccccc1S2.O=S(=O)(O)O,-10.4
5,Cc1cc(NS(=O)(=O)c2ccc(NC(=O)C(C)N3C(=O)c4ccccc4C3=O)cc2)nc(C)n1 (stereo not shown),-1.69
6,CCCCc1nc2ccccc2c(C(=O)O)c1C,5.75
7,CCOC(=O)C1(P(=O)(c2ccccc2)c2ccccc2)CCC1,14
8,O=C(NCC(c1ccco1)N1CCc2ccccc21)C(=O)Nc1ccc(F)cc1F (stereo not shown),-3.87
9,CCOC(=O)c1cnc(Nc2nc3ccccc3o2)nc1CSc1ncccn1,1.37
10,CCn1nnc(NC(=O)c2cccc(-c3cc4ccccc4oc3=O)c2)n1,-2.15
11,CCN(C(=O)COC(=O)CCCOc1ccccc1)c1c(N)n(Cc2ccccc2)c(=O)[nH]c1=O,14.2
12,COC(=O)Cn1c(=O)c(C(=O)CCl)c(N)n(Cc2ccccc2)c1=O,3.71
13,CCC(C)C(NS(=O)(=O)c1ccc(C)cc1)C(=O)O (stereo not shown),7.72
14,O=C(OCn1ncc(Cl)c(Cl)c1=O)c1ccccc1Cl,12.9
15,CCOc1ccc(C(C(=O)NCC2CCCO2)N(C(=O)c2snc(C(N)=O)c2N)c2cccc(F)c2)cc1 (stereo not shown),17.7
16,COCCCNC(=O)C1CCN(S(=O)(=O)N(CC(C)C)CC(C)C)CC1,3.85
17,COc1ccc(N2CCN(Cc3nnc(-c4ccccc4)o3)CC2)cc1,12.2
18,COc1ccccc1NC(=O)CCn1c(=O)sc2ccccc21,2.53
19,COC(=O)C1=C(COc2ccccc2)NC(=O)NC1c1ccc(Cl)cc1 (stereo not shown),10.1
20,COCCNC(=O)CSc1nnc(NC(=O)C2CC(=O)N(c3ccccc3OC)C2)s1 (stereo not shown),15.3
21,Cc1cccn(Cc2c(Cl)cccc2Cl)c1=O,-5.06
22,COC(=O)C1=C(C)NC(C)=C(C(=O)OC)C1c1ccc(N(C)C)cc1,2.4

row,SMILES,"hERG current change (%, negative = inhibition) at 1uM [%]"
1,Cc1ccc(C2CC2C(=O)NN)cc1 (stereo not shown),0.591
2,COCCn1nnnc1C(CC(C)C)N1CCN(c2ccccc2)CC1 (stereo not shown),10.7
3,CC(NC(=O)Cc1ccccc1[N+](=O)[O-])c1ccccc1 (stereo not shown),8.34
4,COc1cc(S(=O)(=O)N2CCN=C2c2ccccc2)ccc1F,-2.63
5,COc1ccc(-c2nc3c(n2O)CCCC3=O)cc1OC,13.8
6,Cc1cc(C)cc(NC(=O)c2nccnc2C(=O)O)c1,4.8
7,Cc1ccc(S(=O)(=O)C2(C(=O)NC3CCCCC3C)CC2)cc1 (stereo not shown),6.18
8,COc1cccc(C(=O)N(Cc2ccco2)c2c(N)n(Cc3ccccc3)c(=O)[nH]c2=O)c1,12.9
9,COCCC(=O)N1CCCC(C(=O)c2ccc(C(F)(F)F)cc2)C1 (stereo not shown),12.8
10,CN(C(=O)COC(=O)CCc1c[nH]c2ccccc12)c1ccccc1,14.9
11,COc1ccccc1C1/C(=C(\O)c2ccc3c(c2)OCCO3)C(=O)C(=O)N1CCCn1ccnc1 (stereo not shown),14
12,Cc1ccc(NS(=O)(=O)c2ccccc2F)cc1S(=O)(=O)N1CCCCC1,6.79
13,Cc1cc(Nc2cccc(Cl)c2)nc(NCc2ccccc2)n1,21.2
14,Cc1ccc(C2=NN(C(=O)CSc3nnnn3C)C(c3ccco3)C2)cc1 (stereo not shown),12.1
15,Oc1ccc2nc(Cc3ccccc3)[nH]c2c1,13
16,O=S(=O)(c1cnc(Cl)c(Br)c1)N1CCCCCC1,1.04
17,COC(=O)C1N[C@@H]([C@@H](NC(=O)COc2ccccc2)C(=O)NCc2ccc(OC)cc2)SC1(C)C (stereo partly shown),15.5
18,COc1ccc(S(=O)(=O)N2CCN(C3Cc4ccccc4C3)CC2)cc1,11
19,CCC(=O)N1c2ccccc2[C@@H](N(C(C)=O)c2ccccc2)C[C@H]1C,5.94
20,O=c1cc(-c2ccccc2)[nH]c2[nH]n(-c3ccccc3)c(=O)c12,-11.6
21,Cc1cccc(C(=O)OCC(=O)c2ccc3c(c2)OCO3)c1O,11.8
22,CC(c1nc2ccccc2c(=O)[nH]1)N1CCOCC1 (stereo not shown),6.16
